Measurements from article PMC6570896.
Results are given in words; binding and its absence hold for the method and conditions named. In cells and extracts the contact can be indirect. Some results given as binding are weak or reduced against the parent protein; the word gives no strength. For part of these data: Tags and fused reporters may be left off the sequences shown.

Sequences of proteins named here, by UniProt entry; tags and fusion partners are left off.
UniProt Q9FXM3: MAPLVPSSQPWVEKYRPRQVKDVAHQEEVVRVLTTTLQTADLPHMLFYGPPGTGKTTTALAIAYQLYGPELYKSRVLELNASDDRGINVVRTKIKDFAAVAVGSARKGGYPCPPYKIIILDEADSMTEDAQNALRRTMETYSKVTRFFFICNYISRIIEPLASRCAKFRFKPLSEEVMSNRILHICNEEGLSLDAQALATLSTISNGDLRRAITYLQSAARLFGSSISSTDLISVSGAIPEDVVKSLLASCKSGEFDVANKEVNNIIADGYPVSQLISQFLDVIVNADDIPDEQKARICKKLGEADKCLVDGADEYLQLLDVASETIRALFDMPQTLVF
UniProt Q93ZX1: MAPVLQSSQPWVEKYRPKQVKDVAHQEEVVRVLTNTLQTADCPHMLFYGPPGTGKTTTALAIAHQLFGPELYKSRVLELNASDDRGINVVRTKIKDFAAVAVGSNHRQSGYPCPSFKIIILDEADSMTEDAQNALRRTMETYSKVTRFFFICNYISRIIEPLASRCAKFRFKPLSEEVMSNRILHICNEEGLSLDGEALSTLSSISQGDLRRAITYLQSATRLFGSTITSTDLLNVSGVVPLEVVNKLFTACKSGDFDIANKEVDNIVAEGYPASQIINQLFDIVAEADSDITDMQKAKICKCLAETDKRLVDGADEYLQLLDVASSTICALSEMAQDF
UniProt Q9ZW35: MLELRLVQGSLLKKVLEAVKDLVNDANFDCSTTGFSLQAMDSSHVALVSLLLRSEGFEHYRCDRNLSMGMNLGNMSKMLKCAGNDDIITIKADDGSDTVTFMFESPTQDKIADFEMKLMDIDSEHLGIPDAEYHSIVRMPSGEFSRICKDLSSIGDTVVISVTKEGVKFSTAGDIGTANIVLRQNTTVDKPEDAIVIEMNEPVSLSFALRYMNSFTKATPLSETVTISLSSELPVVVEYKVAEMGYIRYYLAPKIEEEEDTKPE
UniProt P17070: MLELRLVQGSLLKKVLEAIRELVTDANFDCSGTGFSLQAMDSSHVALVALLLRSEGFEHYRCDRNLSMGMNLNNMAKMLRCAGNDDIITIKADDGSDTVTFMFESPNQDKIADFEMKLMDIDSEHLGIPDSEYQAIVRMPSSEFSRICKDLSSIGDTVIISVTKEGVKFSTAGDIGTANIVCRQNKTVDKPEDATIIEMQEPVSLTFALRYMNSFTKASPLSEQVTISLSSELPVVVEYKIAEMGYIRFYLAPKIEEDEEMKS
UniProt Q9M7Q7: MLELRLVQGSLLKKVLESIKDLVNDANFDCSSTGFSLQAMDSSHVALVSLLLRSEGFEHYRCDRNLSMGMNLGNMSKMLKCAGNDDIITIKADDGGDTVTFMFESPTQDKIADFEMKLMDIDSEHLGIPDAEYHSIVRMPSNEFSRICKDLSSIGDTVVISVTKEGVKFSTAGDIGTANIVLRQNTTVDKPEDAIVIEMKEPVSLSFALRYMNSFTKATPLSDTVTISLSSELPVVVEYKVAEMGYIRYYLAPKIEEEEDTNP

How the values were obtained:
Test in all cases: split reporter; BiFC: fusions to YFP^N (1-155 aa) and YFP^C (156-239 aa) co-expressed transiently in Nicotiana benthamiana leaf epidermal cells; YFP seen by confocal microscopy
[1] = molecular target: T1, OsRFC5-YFP^N (rice (Oryza sativa)) (UniProt Q852K3)
T1 sequence: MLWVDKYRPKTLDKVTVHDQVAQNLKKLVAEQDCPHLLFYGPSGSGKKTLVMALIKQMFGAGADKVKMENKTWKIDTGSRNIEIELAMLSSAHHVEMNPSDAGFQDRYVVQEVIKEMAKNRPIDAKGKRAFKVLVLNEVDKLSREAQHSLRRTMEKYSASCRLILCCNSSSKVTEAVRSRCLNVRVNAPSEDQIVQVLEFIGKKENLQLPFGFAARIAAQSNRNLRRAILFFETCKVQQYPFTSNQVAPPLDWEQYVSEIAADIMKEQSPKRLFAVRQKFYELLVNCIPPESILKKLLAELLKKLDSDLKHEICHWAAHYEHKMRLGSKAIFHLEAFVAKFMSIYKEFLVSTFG

[2] = molecular target: OsRFC2-YFP^N (rice (Oryza sativa)) (UniProt Q9FXM3)
[3] = molecular target: T2, OsRFC4-YFP^N (rice (Oryza sativa)) (UniProt Q7XRX1)
T2 sequence: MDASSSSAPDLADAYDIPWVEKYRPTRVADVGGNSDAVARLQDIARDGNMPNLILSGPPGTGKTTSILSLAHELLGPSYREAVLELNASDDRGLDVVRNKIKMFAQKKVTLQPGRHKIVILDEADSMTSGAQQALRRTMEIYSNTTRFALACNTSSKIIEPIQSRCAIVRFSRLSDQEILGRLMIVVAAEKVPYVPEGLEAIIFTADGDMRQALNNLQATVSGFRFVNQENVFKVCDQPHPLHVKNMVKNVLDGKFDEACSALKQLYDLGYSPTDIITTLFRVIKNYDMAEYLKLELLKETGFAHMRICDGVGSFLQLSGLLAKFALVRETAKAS

[4] = molecular target: T3, OsRFC3-YFP^N (rice (Oryza sativa)) (UniProt Q6YZ54)
T3 sequence: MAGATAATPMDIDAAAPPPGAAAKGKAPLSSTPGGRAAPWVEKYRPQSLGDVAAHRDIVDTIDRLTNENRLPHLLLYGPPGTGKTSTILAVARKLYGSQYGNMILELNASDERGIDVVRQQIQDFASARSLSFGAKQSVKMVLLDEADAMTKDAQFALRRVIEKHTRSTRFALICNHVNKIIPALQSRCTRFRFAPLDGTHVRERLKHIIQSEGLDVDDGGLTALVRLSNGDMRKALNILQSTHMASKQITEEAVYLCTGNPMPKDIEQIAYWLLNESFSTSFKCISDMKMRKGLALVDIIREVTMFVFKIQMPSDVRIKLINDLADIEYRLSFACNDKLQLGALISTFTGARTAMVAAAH

[5] = molecular target: AtRFC4-YFP^N (Arabidopsis thaliana) (UniProt Q93ZX1)
[6] = molecular target: T4, OsRFC1-YFP^N (rice (Oryza sativa)) (UniProt Q2R2B4)
T4 sequence: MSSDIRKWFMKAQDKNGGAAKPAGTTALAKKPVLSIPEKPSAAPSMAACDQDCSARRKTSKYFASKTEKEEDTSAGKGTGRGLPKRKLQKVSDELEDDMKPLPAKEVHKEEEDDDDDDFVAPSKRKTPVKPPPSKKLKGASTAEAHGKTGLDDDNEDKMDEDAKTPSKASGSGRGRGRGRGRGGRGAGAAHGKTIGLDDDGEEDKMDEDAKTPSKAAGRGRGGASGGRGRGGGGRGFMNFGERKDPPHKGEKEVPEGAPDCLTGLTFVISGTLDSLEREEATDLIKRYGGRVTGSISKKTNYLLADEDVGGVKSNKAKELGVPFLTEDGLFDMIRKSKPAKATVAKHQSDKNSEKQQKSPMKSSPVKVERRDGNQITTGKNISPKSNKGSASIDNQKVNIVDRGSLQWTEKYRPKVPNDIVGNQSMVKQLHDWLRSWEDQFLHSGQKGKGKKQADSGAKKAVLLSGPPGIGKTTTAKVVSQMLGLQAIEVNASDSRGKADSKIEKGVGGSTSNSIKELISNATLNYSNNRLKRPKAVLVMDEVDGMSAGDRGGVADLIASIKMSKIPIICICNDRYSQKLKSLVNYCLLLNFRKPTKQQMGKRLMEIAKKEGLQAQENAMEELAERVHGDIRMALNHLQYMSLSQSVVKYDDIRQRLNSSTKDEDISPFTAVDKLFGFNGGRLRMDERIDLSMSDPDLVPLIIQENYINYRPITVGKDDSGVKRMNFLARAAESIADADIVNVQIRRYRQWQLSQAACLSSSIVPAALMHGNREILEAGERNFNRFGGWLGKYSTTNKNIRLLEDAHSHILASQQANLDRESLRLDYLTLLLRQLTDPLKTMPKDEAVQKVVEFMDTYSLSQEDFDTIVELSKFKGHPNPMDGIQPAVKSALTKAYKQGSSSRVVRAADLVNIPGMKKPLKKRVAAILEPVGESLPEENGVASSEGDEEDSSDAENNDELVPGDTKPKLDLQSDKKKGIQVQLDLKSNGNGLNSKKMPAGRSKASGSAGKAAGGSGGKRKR

Row | binding [1] | binding [2] | binding [3] | binding [4] | binding [5] | binding [6] | Substance
1 | binds | binds | binds | binds | binds | binds | AtPCNA2-YFP^C (from UniProt Q9ZW35 1-264)
2 | binds | binds | binds | binds | binds | binds | OsPCNA-YFP^C (from UniProt P17070 1-263)
3 | binds | binds | binds | binds | binds | binds | AtPCNA1-YFP^C (from UniProt Q9M7Q7 1-263)
